Assay results reported in the supplement of paper PMC3334620.
The full ranking holds about 33,000 sequences; the median of “E-score (-0.5 to 0.5)” is about -0.035, and the highest 2% start at about 0.34. The list shows a part of the results.

Each sequence was assayed against T1, Mot3 (UniProt P54785) (assay: PBM E-score (8-mer binding enrichment) (E-score (-0.5 to 0.5)); higher = stronger / more preferred TF binding; most listed sequences are background and not binding sites). Conditions: protein concentration: 200 nM; construct: GST-full length.
T1 sequence: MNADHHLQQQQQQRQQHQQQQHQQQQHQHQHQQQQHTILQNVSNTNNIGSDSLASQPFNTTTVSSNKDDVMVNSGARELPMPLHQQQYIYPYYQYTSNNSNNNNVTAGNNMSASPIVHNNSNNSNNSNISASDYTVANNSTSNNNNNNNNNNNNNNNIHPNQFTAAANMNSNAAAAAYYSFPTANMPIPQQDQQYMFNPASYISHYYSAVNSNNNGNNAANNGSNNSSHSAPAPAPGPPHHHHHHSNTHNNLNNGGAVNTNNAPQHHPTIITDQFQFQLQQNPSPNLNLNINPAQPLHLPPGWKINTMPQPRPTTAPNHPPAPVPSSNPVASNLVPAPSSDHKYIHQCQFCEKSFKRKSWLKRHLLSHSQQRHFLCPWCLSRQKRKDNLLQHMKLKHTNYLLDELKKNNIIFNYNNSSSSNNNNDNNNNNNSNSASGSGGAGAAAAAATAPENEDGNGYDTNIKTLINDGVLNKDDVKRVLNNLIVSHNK
Procedure, shortened: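 PURExpress in vitro transcription/translation supplied GST-tagged yeast transcription factors, either full-length or DNA-binding domain. Applied at about 100-200 nM to universal all-10-mer Agilent arrays double-stranded by primer extension, the bound protein was detected with fluorescent anti-GST. E-scores, modified Wilcoxon-Mann-Whitney statistics, were given by the Universal PBM Analysis Suite to ungapped eight-base words pooled with their reverse complements after masliner normalisation.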

ATCTTTCC was tested. Which “PBM E-score” value did it give?
Its value is 0.0474.

With AGTGAAAG as the sequence, how does the “PBM E-score” value read?
Its value is -0.0637.

Which “PBM E-score” value does the source give for CAAGGTCA here?
The value was -0.0892.

ATTCTCGC was tested. Which “PBM E-score” value did it give?
The value was -0.24.

For CCATGCCA, which “PBM E-score” value is on record?
The value was -0.118.

How did the “PBM E-score” value turn out when AAGTAATC was run?
The value was 0.272.

ATTTTAAG was tested. Which “PBM E-score” value did it give?
The value was 0.0582.

With TGATTAAA as the sequence, how does the “PBM E-score” value read?
Its value is -0.0142.

Which “PBM E-score” value does the source give for ACCGAGAT here?
The value was -0.131.

How did the “PBM E-score” value turn out when ACAGGCTA was run?
Its value is 0.183.

For CACTCTCG, which “PBM E-score” value is on record?
The value was 0.0485.

With CATTTTCG as the sequence, how does the “PBM E-score” value read?
The value was -0.0345.

Which “PBM E-score” value does the source give for AAGGGCGT here?
The value was 0.025.

How did the “PBM E-score” value turn out when AGGTAACG was run?
The value was 0.266.

With CTCGGTCC as the sequence, how does the “PBM E-score” value read?
Its value is -0.203.

CCAGACAC was tested. Which “PBM E-score” value did it give?
The value was -0.206.

With TCGAATAA as the sequence, how does the “PBM E-score” value read?
Its value is -0.146.

For CGCCCAAG, which “PBM E-score” value is on record?
The value was -0.105.

CATCGCCC was tested. Which “PBM E-score” value did it give?
Its value is -0.109.

For CTAAACTA, which “PBM E-score” value is on record?
The value was 0.0503.

CGGTTACA was tested. Which “PBM E-score” value did it give?
Its value is 0.274.

With CATTACCC as the sequence, how does the “PBM E-score” value read?
Its value is -0.179.

CGTGATAG was tested. Which “PBM E-score” value did it give?
Its value is -0.019.

For GCCCTGCA, which “PBM E-score” value is on record?
The value was -0.18.

AGACGTAA was tested. Which “PBM E-score” value did it give?
Its value is 0.196.

For AACCGAAG, which “PBM E-score” value is on record?
The value was 0.163.

With AAGATACC as the sequence, how does the “PBM E-score” value read?
Its value is 0.0004.

With CTCCTGAA as the sequence, how does the “PBM E-score” value read?
Its value is -0.261.

How did the “PBM E-score” value turn out when CGGCTGTA was run?
Its value is -0.144.

GGATAGAA was tested. Which “PBM E-score” value did it give?
Its value is -0.0162.

For GCTAGACA, which “PBM E-score” value is on record?
Its value is -0.027.

Which “PBM E-score” value does the source give for CCTGCGAG here?
The value was 0.038.

For TCCGGGAA, which “PBM E-score” value is on record?
Its value is -0.0682.

For CAGAGATC, which “PBM E-score” value is on record?
The value was -0.254.

TAGGCACA was tested. Which “PBM E-score” value did it give?
Its value is 0.491.

GTGATTTA was tested. Which “PBM E-score” value did it give?
The value was 0.118.

With CCCTTGTA as the sequence, how does the “PBM E-score” value read?
Its value is 0.237.

How did the “PBM E-score” value turn out when AGACGACG was run?
Its value is -0.14.

How did the “PBM E-score” value turn out when ATCCAGTA was run?
Its value is 0.0712.

For GCATGCCC, which “PBM E-score” value is on record?
Its value is 0.0143.

For AAAAGGAG, which “PBM E-score” value is on record?
The value was 0.0569.

GGGTTGAC was tested. Which “PBM E-score” value did it give?
The value was -0.176.

How did the “PBM E-score” value turn out when AATCGTGG was run?
Its value is 0.202.

CCCTCACG was tested. Which “PBM E-score” value did it give?
Its value is -0.33.

How did the “PBM E-score” value turn out when AATTTTTG was run?
Its value is 0.149.

CTCCGAAG was tested. Which “PBM E-score” value did it give?
The value was -0.108.

For AACGGCAC, which “PBM E-score” value is on record?
The value was 0.11.

With CAGAAATA as the sequence, how does the “PBM E-score” value read?
Its value is 0.0466.

ATCATCGC was tested. Which “PBM E-score” value did it give?
Its value is 0.0609.

With CCTTTGTC as the sequence, how does the “PBM E-score” value read?
Its value is 0.106.

CTACAGAA was tested. Which “PBM E-score” value did it give?
The value was 0.00386.

For GAGCTCGA, which “PBM E-score” value is on record?
The value was -0.178.

How did the “PBM E-score” value turn out when ATGCCCTC was run?
The value was -0.0364.

How did the “PBM E-score” value turn out when CCTACAGC was run?
Its value is 0.0548.

TCTAACCA was tested. Which “PBM E-score” value did it give?
Its value is 0.168.

For CGGCCGGA, which “PBM E-score” value is on record?
The value was -0.264.

CCGCTTAG was tested. Which “PBM E-score” value did it give?
The value was -0.211.

How did the “PBM E-score” value turn out when CCCACAGG was run?
Its value is 0.0332.

With AAACATTA as the sequence, how does the “PBM E-score” value read?
The value was 0.153.

AAGTCAAA was tested. Which “PBM E-score” value did it give?
The value was 0.0254.

How did the “PBM E-score” value turn out when TGAGGACA was run?
Its value is 0.0577.

For AAGCACGG, which “PBM E-score” value is on record?
The value was 0.0983.

Which “PBM E-score” value does the source give for GCTCGCAC here?
Its value is -0.225.

With ATCAAGGG as the sequence, how does the “PBM E-score” value read?
The value was -0.0363.

How did the “PBM E-score” value turn out when AAATATGG was run?
The value was -0.0451.

Which “PBM E-score” value does the source give for CTTGGGCC here?
The value was -0.177.

Which “PBM E-score” value does the source give for ACGACGAT here?
Its value is -0.117.

For CGAGCACC, which “PBM E-score” value is on record?
The value was -0.189.

Which “PBM E-score” value does the source give for CAGGATTA here?
The value was 0.0583.

For GTATCAAC, which “PBM E-score” value is on record?
Its value is 0.0054.

For CTTGTCGC, which “PBM E-score” value is on record?
Its value is -0.0367.

For TATCGAAA, which “PBM E-score” value is on record?
The value was 0.0403.

How did the “PBM E-score” value turn out when TACGCATA was run?
The value was 0.273.

How did the “PBM E-score” value turn out when AGGGAACA was run?
Its value is 0.0413.

AACTAAAG was tested. Which “PBM E-score” value did it give?
The value was 0.256.

For ACTGAGAT, which “PBM E-score” value is on record?
Its value is -0.0195.

For GCGATCCC, which “PBM E-score” value is on record?
The value was -0.114.

For GCGCCCGC, which “PBM E-score” value is on record?
Its value is -0.199.

How did the “PBM E-score” value turn out when CATCGGTC was run?
The value was -0.13.

CCAGCGCG was tested. Which “PBM E-score” value did it give?
Its value is -0.0524.

GCAAGAAC was tested. Which “PBM E-score” value did it give?
The value was 0.189.

Which “PBM E-score” value does the source give for TCAATTGA here?
Its value is -0.0515.

For GCCCATCA, which “PBM E-score” value is on record?
Its value is -0.183.

How did the “PBM E-score” value turn out when AGACCTTC was run?
Its value is -0.139.

With CCTGACTC as the sequence, how does the “PBM E-score” value read?
The value was -0.15.

For CAGAGATG, which “PBM E-score” value is on record?
Its value is 0.0978.
